Results from PubChem BioAssay AID504332 (National Center for Advancing Translational Sciences (NCATS), 2011).
Screen size: about 350,000 compounds; about 31,000 (8.9%) were called active. The inconclusive results got no clear call from the source; some entries with a clear call stand among them for comparison. Calls come from the whole dose curve; as a rule, active = well fitted inhibition curve with a large enough effect; inconclusive = small, poorly fitted or top-dose-only effect; inactive = no such curve, though single readings can be large or run the other way. Where the call is inconclusive, the potency comes from a doubtful curve fit.
% is set by controls: 0 for no effect and ±100 for the full control effect; potency is the fitted concentration of half-maximal effect; tags give direction and shape of the fitted curve.
Note: nearly all actives have a fitted effect of over 75% in size.

The compounds below were run against Histone-lysine N-methyltransferase EHMT2 (Homo sapiens) (UniProt Q96KQ7) (assay: qHTS Assay for Inhibitors of Histone Lysine Methyltransferase G9a). Conditions: G9a H3K9 monomethylation, AlphaScreen, 2 h; activity, negative = inhibition: at 59 µM (top of the series) unless noted.
Sequence of UniProt Q96KQ7 (Q96KQ7 whole entry, looked up): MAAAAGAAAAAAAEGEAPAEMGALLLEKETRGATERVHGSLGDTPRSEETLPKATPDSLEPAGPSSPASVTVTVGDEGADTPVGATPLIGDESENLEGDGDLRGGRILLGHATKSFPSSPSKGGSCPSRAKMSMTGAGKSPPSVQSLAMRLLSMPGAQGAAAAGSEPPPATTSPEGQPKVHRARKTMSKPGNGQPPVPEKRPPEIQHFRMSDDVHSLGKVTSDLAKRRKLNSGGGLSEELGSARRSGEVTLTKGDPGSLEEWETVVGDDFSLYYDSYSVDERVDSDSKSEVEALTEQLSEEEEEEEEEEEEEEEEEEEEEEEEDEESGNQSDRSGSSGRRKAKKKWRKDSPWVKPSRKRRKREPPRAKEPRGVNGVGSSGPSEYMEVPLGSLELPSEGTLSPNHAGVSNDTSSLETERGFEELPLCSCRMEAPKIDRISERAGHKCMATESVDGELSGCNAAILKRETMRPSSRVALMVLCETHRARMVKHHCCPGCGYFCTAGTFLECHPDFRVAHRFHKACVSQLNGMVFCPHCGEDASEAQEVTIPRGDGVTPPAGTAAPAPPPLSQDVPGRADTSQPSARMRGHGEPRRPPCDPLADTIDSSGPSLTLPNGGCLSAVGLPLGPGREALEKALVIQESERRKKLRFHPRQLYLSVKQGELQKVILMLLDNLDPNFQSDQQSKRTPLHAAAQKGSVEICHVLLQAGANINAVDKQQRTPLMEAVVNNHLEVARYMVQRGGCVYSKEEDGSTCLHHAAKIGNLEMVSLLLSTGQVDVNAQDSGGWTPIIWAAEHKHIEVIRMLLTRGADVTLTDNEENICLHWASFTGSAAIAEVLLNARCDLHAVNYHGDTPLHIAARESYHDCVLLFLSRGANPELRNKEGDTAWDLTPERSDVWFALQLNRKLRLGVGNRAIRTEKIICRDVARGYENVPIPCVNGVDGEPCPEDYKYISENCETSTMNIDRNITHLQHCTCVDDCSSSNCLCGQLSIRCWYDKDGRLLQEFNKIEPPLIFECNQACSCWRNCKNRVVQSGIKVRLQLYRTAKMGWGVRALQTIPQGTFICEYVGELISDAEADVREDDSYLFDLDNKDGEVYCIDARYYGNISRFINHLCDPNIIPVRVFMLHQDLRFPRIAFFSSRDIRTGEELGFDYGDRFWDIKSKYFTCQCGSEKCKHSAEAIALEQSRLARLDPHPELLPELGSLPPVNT
How it was run: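 G9a (20 nM) was preincubated 15 min with compound, then reacted 2 h at room temperature with 500 nM biotin-H3K9 peptide and 20 µM SAM. Monomethyl-H3K9 detected by AlphaScreen using anti-H3K9me1 antibody.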
`O=c1oc(/C=C/c2ccccc2)nc2ccccc12` was tested, and the “activity, negative = inhibition” value was inactive: 15% [at 102 µM].
For `Cn1c(=O)oc2cc(S(=O)(=O)CCC(=O)NCc3ccccc3)ccc21`, the Potency was inconclusive: 28.2 µM [inhibitor, partial curve, poor fit].
For `CCCCC1=CC2=C(c3ccco3)C(=O)C(C)(OC(=O)c3ccc(OC)cc3)C(=O)C2=CN1CC1CC1` (centres undefined), the Potency was inconclusive: 39.8 µM [inhibitor, single point].
In the case of `CCOc1ccc(N2CC(c3nc(-c4cc(OC)c(OC)c(OC)c4)no3)CC2=O)cc1` (centres undefined), the “activity, negative = inhibition” value is reported as inactive: 1.86%.
In the case of `O=C(c1ccco1)N1CCN(C(=O)c2ccc(Cn3cc(Br)cn3)o2)CC1`, the Potency is reported as active: 50.1 µM.
In the case of `C/C(N)=C(/C#N)C(=O)COC(=O)COc1ccc(Cl)cc1C`, the Potency is reported as active: 50.1 µM.
`CCCCCCC1C(C#N)=C(N)OC2=C1C(=O)CC(C)(C)C2` (centres undefined) was tested, and the “activity, negative = inhibition” value was inactive: -4.61%.
`C=CCn1c(SCC(=O)Nc2ccc(C(=O)O)cc2)nnc1-c1cccnc1` was tested, and the Potency was inconclusive: 89.1 µM [inhibitor, partial curve, poor fit].
`CC(Oc1ccc(Br)cc1)c1nc2c3ccccc3nc(=S)n2[nH]1` (centres undefined) was tested, and the “activity, negative = inhibition” value was inactive: 49%.
With `CCOC(=O)c1[nH]c(C)c(CCC(=O)N2CCN(c3ccccc3)CC2)c1C` the “activity, negative = inhibition” value was inactive: -27.2%.
For `CCCCNC(=O)CN(c1cccc(Br)c1)S(C)(=O)=O`, the Potency was inconclusive: 39.8 µM [inhibitor, single point].
With `CSCCC(NC(=O)c1ccccc1Cl)C(=O)NCC(c1cccs1)N(C)C` (centres undefined) the Potency was inconclusive: 89.1 µM [inhibitor, partial curve, poor fit].
In the case of `Cc1cc(C(=O)Cn2nc(C(=O)O)c3ccccc3c2=O)c(C)n1CC(F)(F)F`, the Potency is reported as inconclusive: 39.8 µM [inhibitor, partial curve, poor fit].
`Cc1cccc(N2C(=O)CC(Sc3nccc(C)n3)C2=O)c1` (centres undefined) was tested, and the Potency was inconclusive: 79.4 µM [inhibitor, single point].
With `CCn1c(SCC(=O)c2c(N)n(C)c(=O)n(C)c2=O)nc2sc(C)c(C)c2c1=O` the Potency was inconclusive: 79.4 µM [inhibitor, single point].
In the case of `Cc1ccccc1CSc1nnc(-c2ccccn2)n1C`, the “activity, negative = inhibition” value is reported as inactive: -3.95% [at 102 µM].
In the case of `CCOC(=O)c1c(C)oc2nc(C)nc(NCC3CCN(Cc4ccc(Cl)cc4)CC3)c12`, the “activity, negative = inhibition” value is reported as inactive: -25%.
With `CC(=O)OCC#CCSc1nnc(-c2cccc(Br)c2)o1` the “activity, negative = inhibition” value was inactive: 51.9%.
For `Cc1cccc(NC(=O)c2ccccc2NC(=O)c2ccccc2)n1`, the “activity, negative = inhibition” value was inactive: 26.7% [at 102 µM].
With `CC(=O)NN1C(=O)/C(=C/c2ccc(C(C)C)cc2)SC1=S` the “activity, negative = inhibition” value was inactive: -20.9%.
`Cc1ccc(NC(=O)COC(=O)CCn2c(C)csc2=O)cc1S(=O)(=O)N1CCOCC1` was tested, and the Potency was inconclusive: 50.1 µM [inhibitor, partial curve].
For `O=C(CSc1nc(-c2ccccc2Cl)ns1)NCc1ccco1`, the Potency was inconclusive: 100 µM [inhibitor, single point].
For `CCCCCCCNC(=O)C1(CC2CC(c3ccc(Cl)cc3)=NO2)CCN(C(=O)CCCCCBr)CC1` (centres undefined), the Potency was inconclusive: 56.2 µM [inhibitor, partial curve, poor fit].
For `O=C(c1ccc(CSCc2ccccc2F)o1)N1CCN(c2ccc(N3CCOCC3)nn2)CC1`, the Potency was active: 39.8 µM.
`CCc1ccc(-c2nc(CN3CCC(C(=O)NCCc4ccc(OC)c(OC)c4)CC3)c(C)o2)cc1` was tested, and the Potency was inconclusive: 25.1 µM [inhibitor, single point].
`Cc1c(Cl)cccc1NC(=O)CSc1nc2ncc(Cl)cc2[nH]1` was tested, and the Potency was inconclusive: 89.1 µM [inhibitor, single point].
For `CCOC(=O)c1c(C)[nH]c(C)c1C(=O)CSc1nnc(-c2ccncc2)n1C`, the Potency was inconclusive: 39.8 µM [inhibitor, single point].
`CCOCCc1nnc(NC(=O)C2CC(=O)N(CCc3ccc(F)cc3)C2)s1` (centres undefined) was tested, and the Potency was inconclusive: 89.1 µM [inhibitor, single point].
For `CC(C)C(=O)NCC(c1ccc2c(c1)OCO2)N1CCN(c2ccccc2F)CC1` (centres undefined), the “activity, negative = inhibition” value was inactive: -2.79%.
With `O=C(Nc1ccccc1N1CCN(C(=O)c2ccccc2)CC1)c1ccc([N+](=O)[O-])o1` the Potency was inconclusive: 79.4 µM [inhibitor, single point].
With `CCN(CC(=O)NCc1cccs1)C(=O)c1ccc(NS(=O)(=O)c2ccc(F)cc2)cc1` the “activity, negative = inhibition” value was inactive: -28.8% [at 102 µM].
`COc1ccc(Cc2noc(CN3CCC(c4ccncc4)CC3)n2)cc1OC` was tested, and the Potency was inconclusive: 70.8 µM [inhibitor, partial curve, poor fit].
`CCc1nc2ccccc2n1Cc1ccc(OC)c(OC)c1` was tested, and the Potency was inconclusive: 39.8 µM [inhibitor, single point].
In the case of `Cc1ccc(CN2CCCCC2C(=O)Nc2ccc(Oc3cccnc3)cc2)o1` (centres undefined), the Potency is reported as inconclusive: 89.1 µM [inhibitor, single point].
For `CC(C)C(NS(=O)(=O)c1cc(C(=O)O)ccc1Cl)C(=O)O` (centres undefined), the Potency was inconclusive: 70.8 µM [inhibitor, partial curve, poor fit].
In the case of `CCCN(C(=O)CSc1n[nH]c(-c2ccc(OC)cc2)n1)c1c(N)n(Cc2ccccc2)c(=O)[nH]c1=O`, the Potency is reported as active: 44.7 µM.
For `CCOc1ccc(C(=O)NCc2nc3cccnc3n2Cc2ccc(F)cc2)cc1OCC`, the “activity, negative = inhibition” value was inactive: 1.57%.
In the case of `Cc1ccccc1NC(=O)CN1CCOCC1`, the Potency is reported as inconclusive: 89.1 µM [inhibitor, single point].
With `O=C(N/N=C/c1ccc2c(c1)OCO2)C(=O)N1CCCC1` the “activity, negative = inhibition” value was inactive: 5.14% [at 102 µM].
In the case of `Cn1nc(C(=O)N2CCN(S(=O)(=O)/C=C/c3ccccc3)CC2)c2ccccc2c1=O`, the Potency is reported as inconclusive: 50.1 µM [inhibitor, partial curve].
In the case of `N[C@@H](CCS(=O)O)C(=O)O`, the Potency is reported as “inactive”.
In the case of `Cc1ccc2nc(SCC(=O)N(CC(C)C)c3c(N)n(CC(C)C)c(=O)[nH]c3=O)[nH]c2c1`, the Potency is reported as inconclusive: 3.55 µM [inhibitor, partial curve, poor fit].
`O=C(O)c1cc2cc(Oc3ccccc3)ccc2[nH]1` was tested, and the Potency was inconclusive: 39.8 µM [inhibitor, single point].
`CC1(C)CC2CC(C)(CN2CC(=O)C(C#N)c2ccccc2)C1` (centres undefined) was tested, and the Potency was inconclusive: 25.1 µM [inhibitor, single point].
In the case of `O=C(c1ccccn1)N(Cc1ccco1)C1(C(=O)NC2CCCC2)CCCCC1`, the “activity, negative = inhibition” value is reported as inactive: 31.4%.
In the case of `O=C(CSc1nnc(Cc2cc(=O)[nH]c(=O)[nH]2)n1-c1ccc(Cl)cc1)NCC1CCCO1` (centres undefined), the Potency is reported as inconclusive: 100 µM [inhibitor, single point].
`O=C(NCc1ccco1)c1ccc(Cn2c(SCc3ccc(F)cc3)nc3cccnc32)cc1` was tested, and the “activity, negative = inhibition” value was inactive: -45.2%.
With `COc1ccc(N2C(=O)[C@@H]3[C@H](C2=O)[C@H](C(=O)c2ccc(OC(C)=O)cc2)N2N=CC=C[C@@H]32)cc1` the Potency was active: 3.55 µM.
For `CCc1c(C)sc(NC(=O)c2ccoc2C)c1C(N)=O`, the Potency was active: 7.08 µM.
For `Cc1cccc(N2CCN(C(=S)Nc3ccc4nc(N5CCN(C)CC5)cc(C)c4c3)CC2C)c1` (centres undefined), the Potency was inconclusive: 89.1 µM [inhibitor, partial curve, poor fit].
With `COc1ccc(OCCCC(=O)Nc2ncn[nH]2)cc1` the Potency was inconclusive: 3.16 µM [inhibitor, full curve].
For `O=c1cc(O)c2c(=O)n(C3CCCCC3)c3ccccc3c2o1`, the Potency was inconclusive: 79.4 µM [inhibitor, partial curve, poor fit].
With `CC(=O)Nc1ccc(C(=O)NCC2(N3CCCCC3)CCCCC2)cc1` the Potency was inconclusive: 31.6 µM [inhibitor, partial curve].
`COc1ccc(N2CCN(C(=O)CN(C)S(=O)(=O)c3cc(C)ccc3OC)CC2)cc1` was tested, and the Potency was inconclusive: 79.4 µM [inhibitor, single point].
With `Cc1cc(NS(=O)(=O)c2ccccc2)c([N+](=O)[O-])cc1C` the Potency was inconclusive: 17.8 µM [inhibitor, single point].
In the case of `COc1ccc(CCNC(=O)c2c([S-])n(-c3ccc(C)cc3)c3cccc[n+]23)cc1`, the activity, negative = inhibition is reported as inconclusive: -89.3% [inhibitor].
In the case of `COc1cc2c(cc1NC(=O)c1ccc3c(c1)OCO3)oc1ccccc12`, the “activity, negative = inhibition” value is reported as inactive: 14.6%.
For `Cc1ccc(C(=O)NC(=S)NCC2CCCO2)cc1Br` (centres undefined), the Potency was active: 44.7 µM.
`CCCN(Cc1cccs1)C(=O)Nc1ccc(OCC)cc1` was tested, and the Potency was inconclusive: 31.6 µM [inhibitor, partial curve, poor fit].
`C/C(=C(/CCOC(=O)C(C)C)SS/C(CCOC(=O)C(C)C)=C(\C)N(C=O)Cc1cnc(C)nc1N)N(C=O)Cc1cnc(C)nc1N` was tested, and the activity, negative = inhibition was inactive: -1.35% [at 12.7 µM].
In the case of `Cc1cc(C)cc(NC(=O)C(=O)NCC(c2ccc3c(c2)OCO3)N2CCN(C)CC2)c1` (centres undefined), the “activity, negative = inhibition” value is reported as inactive: -5.24%.
In the case of `COc1cccc2c1ncc1c(-c3ccc(C)cc3)nn(-c3cccc([N+](=O)[O-])c3)c12`, the “activity, negative = inhibition” value is reported as inactive: 52.9%.
In the case of `O=C(Nc1ccc2c(c1)OCO2)c1ccc(N2CCCC2)c([N+](=O)[O-])c1`, the Potency is reported as active: 10 µM.
In the case of `Cc1cccc(-c2nc(SCC(=O)N3CCc4ccccc43)c3c(=O)n(C)c(=O)n(C)c3n2)c1`, the “activity, negative = inhibition” value is reported as inactive: -2.45%.
For `O=C(NC(=S)N1CCOCC1)c1cc2ccccc2o1`, the Potency was inconclusive: 50.1 µM [inhibitor, partial curve, poor fit].
`COc1cc(C(=O)NCC(=O)N/N=C(\C)Cc2ccccc2)cc(OC)c1OC` was tested, and the “activity, negative = inhibition” value was inactive: 10.8% [at 102 µM].
For `N/C(=N\OC(=O)c1ccccc1[N+](=O)[O-])c1cccnc1`, the Potency was inconclusive: 79.4 µM [inhibitor, partial curve, poor fit].
With `CC(C)(NO)/C(=N/O)c1cccs1` the Potency was active: 7.08 µM.
With `Cc1ccc(C2CCN(C(=O)c3cnn(-c4cccc(Cl)c4)c3C3CCN(C(=O)OC(C)(C)C)CC3)C2)cc1` (centres undefined) the Potency was inconclusive: 12.6 µM [inhibitor, partial curve, poor fit].
